Measurements: the supplement of paper PMC4967469
The IC50 comes from the fitted curve, where viability falls to half of the control; fits outside the tested doses are given as limits. AUC, from the same fit, is the share of area under the viability curve across the 256-fold dose range: 1 means no effect, lower means more sensitive. For part of these data: An inferred top dose was derived from the fitted curves, not read from the paper. For part of these data: Drugs with an entry number were screened twice under separate entries, and the two screens often disagree.

Tests used:
Experiment in all cases: Viability of human cancer cell lines after 72 h of drug (GDSC screen)
[1] = compound: COC(=O)[C@H](CCSC)NC(=O)c1ccc(NC[C@@H](N)CS)cc1-c1ccccc1 [FTI-277]; conditions: top dose 1.024 µM; top dose inferred
Procedure: (§1)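 Human cancer cell lines in 384-well plates, medium with 10% serum, drug for 72 h over a 256-fold dose range (nine 2-fold or five 4-fold steps up to the top dose). Adherent lines were fixed and stained with the nucleic acid dye Syto60, suspension lines read with resazurin; signal relative to control wells, capped at 0 and 100%. One two-parameter sigmoid per drug and line, fitted in a mixed model over all curves with the slope shared within a line.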

[2] = compound: c1ccc2c(CCNc3ccc(Nc4ccncc4)cc3)c[nH]c2c1 [JNJ-26854165]; conditions: top dose 10 µM
Procedure: as §1

[3] = compound: Cc1sc2c(c1C)C(c1ccc(Cl)cc1)=N[C@@H](CC(=O)OC(C)(C)C)c1nnc(C)n1-2 [JQ1]
Procedure: as §1

[4] = compound: C[C@]1(O)C[C@@H](c2nc(-c3ccc4ccc(-c5ccccc5)nc4c3)c3c(N)nccn32)C1 [OSI-906]; conditions: top dose 2.56 µM; top dose inferred
Procedure: as §1

[5] = compound: COCC[n+]1c2c(n(Cc3cnccn3)c1C)C(=O)c1ccccc1C2=O [YM155]; conditions: top dose 5.12 µM
Procedure: as §1

[6] = compound: O=C(/C=C/c1cccc(S(=O)(=O)Nc2ccccc2)c1)NO [Belinostat]; conditions: top dose 20 µM; top dose inferred
Procedure: as §1

[7] = compound: Cc1ccc(C(=O)N(CCCN)[C@@H](c2nc3cc(Cl)ccc3c(=O)n2Cc2ccccc2)C(C)C)cc1 [SB-715992]; conditions: top dose 0.128 µM; top dose inferred
Procedure: as §1

[8] = compound: CN1CCN(c2ccc([N+](=O)[O-])c3no[n+]([O-])c23)CC1 [NSC-207895]; conditions: top dose 20 µM; top dose inferred
Procedure: as §1

[9] = top dose 1 µM, screen: GDSC drug entry 1218, top dose inferred
[10] = top dose 2.56 µM, screen: GDSC drug entry 163

Cell Line: ML-1 (thyroid, adherent)
- AUC [1]: 0.968
- IC50 [1]: > 1020 nM
- AUC [2]: 0.834
- IC50 [2]: 8140 nM
- AUC [3, 9]: 0.98
- IC50 [3, 9]: > 1000 nM
- AUC [3, 10]: 0.708
- IC50 [3, 10]: 688 nM
- AUC [4]: 0.927
- IC50 [4]: > 2560 nM
- AUC [5]: 0.062
- IC50 [5]: < 20 nM
- AUC [6]: 0.321
- IC50 [6]: 359 nM
- AUC [7]: 0.955
- IC50 [7]: > 128 nM
- AUC [8]: 0.805
- IC50 [8]: 12200 nM

Cell Line: NCI-H1793 (lung adenocarcinoma, adherent)
- AUC [1]: 0.975
- IC50 [1]: > 1020 nM
- AUC [2]: 0.928
- IC50 [2]: > 10000 nM
- AUC [3, 9]: 0.965
- IC50 [3, 9]: > 1000 nM
- AUC [3, 10]: 0.92
- IC50 [3, 10]: > 2560 nM
- AUC [4]: 0.981
- IC50 [4]: > 2560 nM
- AUC [5]: 0.079
- IC50 [5]: < 20 nM
- AUC [6]: 0.781
- IC50 [6]: 12100 nM
- AUC [7]: 0.95
- IC50 [7]: > 128 nM
- AUC [8]: 0.969
- IC50 [8]: > 20000 nM

Cell Line: T-24 (bladder, adherent)
- AUC [1]: 0.939
- IC50 [1]: > 1020 nM
- AUC [2]: 0.911
- IC50 [2]: > 10000 nM
- AUC [3, 9]: 0.987
- IC50 [3, 9]: > 1000 nM
- AUC [3, 10]: 0.967
- IC50 [3, 10]: > 2560 nM
- AUC [4]: 0.975
- IC50 [4]: > 2560 nM
- AUC [5]: 0.196
- IC50 [5]: 42.4 nM
- AUC [6]: 0.612
- IC50 [6]: 2500 nM
- AUC [7]: 0.928
- IC50 [7]: > 128 nM
- AUC [8]: 0.978
- IC50 [8]: > 20000 nM

Cell Line: NCI-H1915 (large cell lung carcinoma, adherent)
- AUC [1]: 0.925
- IC50 [1]: > 1020 nM
- AUC [2]: 0.883
- IC50 [2]: > 10000 nM
- AUC [3, 9]: 0.986
- IC50 [3, 9]: > 1000 nM
- AUC [3, 10]: 0.871
- IC50 [3, 10]: 2480 nM
- AUC [4]: 0.98
- IC50 [4]: > 2560 nM
- AUC [5]: 0.063
- IC50 [5]: < 20 nM
- AUC [6]: 0.309
- IC50 [6]: 360 nM
- AUC [7]: 0.721
- IC50 [7]: 34.3 nM
- AUC [8]: 0.983
- IC50 [8]: > 20000 nM

Cell Line: U251 (glioma, adherent)
- AUC [1]: 0.972
- IC50 [1]: > 1020 nM
- AUC [2]: 0.872
- IC50 [2]: 8800 nM
- AUC [3, 9]: 0.927
- IC50 [3, 9]: > 1000 nM
- AUC [3, 10]: 0.793
- IC50 [3, 10]: 1110 nM
- AUC [4]: 0.984
- IC50 [4]: > 2560 nM
- AUC [5]: 0.023
- IC50 [5]: < 20 nM
- AUC [6]: 0.242
- IC50 [6]: 235 nM
- AUC [7]: 0.678
- IC50 [7]: 24.4 nM
- AUC [8]: 0.973
- IC50 [8]: > 20000 nM

Cell Line: HO-1-N-1 (head and neck, adherent)
- AUC [1]: 0.953
- IC50 [1]: > 1020 nM
- AUC [2]: 0.88
- IC50 [2]: 8910 nM
- AUC [3, 9]: 0.861
- IC50 [3, 9]: 734 nM
- AUC [3, 10]: 0.843
- IC50 [3, 10]: 1590 nM
- AUC [4]: 0.987
- IC50 [4]: > 2560 nM
- AUC [5]: 0.023
- IC50 [5]: < 20 nM
- AUC [6]: 0.448
- IC50 [6]: 913 nM
- AUC [7]: 0.548
- IC50 [7]: 10.7 nM
- AUC [8]: 0.904
- IC50 [8]: > 20000 nM
